Data taken from the supplement of paper PMC11417369.
± gives the standard deviation of the averaged measurements. The list shows a part of the results.

Tested on: PfAP2-EXP AP2 domain (GST-tagged)
Assay: gcPBM binding intensity (ln(normalized median fluorescence intensity)); higher = stronger DNA binding
Outline: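 After 1 h on an Agilent 4 × 180k array of primer-extended double-stranded 36-bp intergenic genomic probes and negative controls, bound GST-tagged P. falciparum DNA-binding domains were detected with Alexa488 anti-GST antibody and scanned at 488 nm. The domains had been expressed in E. coli, and binding took place in 1× PBS with 1% milk, 0.2 mg/ml BSA, 0.5% salmon testes DNA and 0.03% Triton X-100. Binding intensity is the highest Masliner-normalised natural-log median intensity across replicate spots of either probe orientation.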

Sequence | gcPBM binding intensity (ln)
TTCATATATTTAGGACGTACTTTTATATTACTATAT [XGTACX_site6456] | 8.77 ± 0.41
TTTTAAAAATTAAGTGCATGTCCTTATAAAAAAAAA [TGCATGCA_site845] | 8.62 ± 0.46
ATATGGAATAATACGCGTACACACATATATATATTA [XGTACX_site307] | 8.85 ± 0.38
TCTTGATTATATAGTACTACACATTATAAAAAAATT [XGTACX_site2465] | 8.57 ± 0.26
TTTATATCATTACAAGTGCATATCATCATAAATTCT [GTGCAC_site9878] | 8.45 ± 0.36
TATATATAAATATATGTGCACTTTTTATATTTATAT | 9.06 ± 0.099
TTTTTAAAATTTTTAAAAATATTATGTTAAATATAT [CACACA_negctrl_site415] | 8.12 ± 0.47
TATGTATGTTAGTGTGCACACATAAATATTATATAT [CACACA_site9121] | 8.81 ± 0.31
ACATATGAAAAATATGCATGCAAATATTATTTAACA [TGCATGCA_site802] | 9.93 ± 0.37
ATATATATGTATTTATGTACATATTATTTTTCTTAA [XGTACX_site8169] | 8.33 ± 0.24
TTGAAAGAAAATAAAATAAAATAAAATAAAATAAAA [CACACA_negctrl_site859] | 8.37 ± 0.37
AAAAAAAAAAAAATCTCACACATAAAGAGATTATGA [CACACA_site4408] | 8.1 ± 0.59
AATAAATAAAAATATATATATATAATATACATGTGT [TGCATGCA_negctrl_site369] | 8.69 ± 0.44
GGATGTATTTATATGTGTATGTGTTTGGAAATATGT [XGTACX_negctrl_site99] | 8.72 ± 0.54
TTTTATTTCAATCCACAAGGGATAAAATAAAGTTTT [CACACA_negctrl_site699] | 7.98 ± 0.38
TATAAATTATATATTTGTACGTATATCACATATATA [XGTACX_site7053] | 8.4 ± 0.33
TACATGAATATATAAAGAAAAAAAAAAAAACACACA [XGTACX_negctrl_site350] | 8.66 ± 0.47
TTCTCATAATTAAATAGTACATATTTTAATAATCAC [XGTACX_site6116] | 8.41 ± 0.28
TATATGTTATATTTAACACACATATAAGGTACATAT [CACACA_site612] | 8.6 ± 0.27
TTTATTGAATAAAATGCACACGCATGCGTTATTTAT [CACACA_site9154] | 9.01 ± 0.23
TTTTATAAACAGAGGGGTACGGGAAAAAAAAAAAAA [XGTACX_site1480] | 8.7 ± 0.73
TGTTAAAGAGAAAGTACTACACATATTATGTGTTTT [XGTACX_site1435] | 8.34 ± 0.35

Sequence | gcPBM binding intensity (ln)
TTTTTAAACCATGTTGTGCACATTTTTTTTGGATTT | 8.95 ± 0.19
TTAAAAAAAATTATTTGTACTTAAAAATTTTATATT [XGTACX_site8751] | 8.06 ± 0.26
AGAAAAAAAAAACACACACACACACCGTCAATATAA [CACACA_site7895] | 8.53 ± 0.64
AAAATTATATATTATAGTACATAAAATTTTGATATA [XGTACX_site994] | 8.39 ± 0.35
TTTGTACCGGCATTTTTTTTTTCTTTTTTTTTCCAA [XGTACX_negctrl_site323] | 8.57 ± 0.46
TTAGTTATTATAATTTGTACACAAATGGTAAAGTAT [XGTACX_site2343] | 8.54 ± 0.15
TATTAAAAATGTTAAGTGCAAAAATAAAAATTGTGG [GTGCAC_site9854] | 8.85 ± 0.099
ATAGATAAATTTACGGGTACTAAAATGGAATATGAA [XGTACX_site8637] | 8.97 ± 0.42
ATTCACATATTATCTTTACACACTATATATAAGTTT [CACACA_site8901] | 8.74 ± 0.47
TGTGTTCAGTATTGCACACACACAACCAAATAAAAA [CACACA_site379] | 8.53 ± 0.37
TATTTTACAATAACAATACACACTATAATATATATA [CACACA_site1391] | 8.68 ± 0.28
CATCAAAATGCTACATGTACATATATATAATATATT [XGTACX_site5207] | 8.69 ± 0.26
GAAATGAACAAGTGGGTGCGTATTAATTACATATTA | 8.88 ± 0.39
AATATATATAAATAAACACACACAAATATAATAAAA [CACACA_site9176] | 8.82 ± 0.49
TTTTTAATTTTTTTTAAACACACACCGTACATTCAA [CACACA_site7925] | 8.54 ± 0.38
TCATTTTAAATATGTGTGCACGTTATAATTTACACA | 8.88 ± 0.25
TATATATATACATATTGTACATATTACATGCTATTA [XGTACX_site1184] | 9.085 ± 0.007
CATTTTCATTTTAAGGTGCATTAATATTTATTTTAA [GTGCAC_site9437] | 8.81 ± 0.19
TATATACTTTATAAATGTACATATAATGTATTATTT [XGTACX_site7313] | 8.34 ± 0.42
CAAATTGGGAAATTTTGTACATATAATAAGGATACC [XGTACX_site7728] | 8.79 ± 0.38
GATAATGAATGATGCACACTAAAAATATTCTACAAC [CACACA_site3622] | 8.71 ± 0.34
CCGTATATTTTATATAGTACTCATCATATATTTTTA [XGTACX_site5560] | 8.48 ± 0.36
